Test results taken from PubChem BioAssay AID1159614 (National Center for Advancing Translational Sciences (NCATS), 2016).
The campaign covered roughly 45,000 compounds. About 65 (0.1%) were called active. Calls come from the whole dose curve; as a rule, active = well fitted activation curve with a large enough effect; inconclusive = small, poorly fitted or top-dose-only effect; inactive = no such curve, though single readings can be large or run the other way. The list shows a part of the results.

Target: Galactocerebrosidase (Homo sapiens) (UniProt P54803)
Chain of UniProt P54803 (P54803 whole entry, looked up): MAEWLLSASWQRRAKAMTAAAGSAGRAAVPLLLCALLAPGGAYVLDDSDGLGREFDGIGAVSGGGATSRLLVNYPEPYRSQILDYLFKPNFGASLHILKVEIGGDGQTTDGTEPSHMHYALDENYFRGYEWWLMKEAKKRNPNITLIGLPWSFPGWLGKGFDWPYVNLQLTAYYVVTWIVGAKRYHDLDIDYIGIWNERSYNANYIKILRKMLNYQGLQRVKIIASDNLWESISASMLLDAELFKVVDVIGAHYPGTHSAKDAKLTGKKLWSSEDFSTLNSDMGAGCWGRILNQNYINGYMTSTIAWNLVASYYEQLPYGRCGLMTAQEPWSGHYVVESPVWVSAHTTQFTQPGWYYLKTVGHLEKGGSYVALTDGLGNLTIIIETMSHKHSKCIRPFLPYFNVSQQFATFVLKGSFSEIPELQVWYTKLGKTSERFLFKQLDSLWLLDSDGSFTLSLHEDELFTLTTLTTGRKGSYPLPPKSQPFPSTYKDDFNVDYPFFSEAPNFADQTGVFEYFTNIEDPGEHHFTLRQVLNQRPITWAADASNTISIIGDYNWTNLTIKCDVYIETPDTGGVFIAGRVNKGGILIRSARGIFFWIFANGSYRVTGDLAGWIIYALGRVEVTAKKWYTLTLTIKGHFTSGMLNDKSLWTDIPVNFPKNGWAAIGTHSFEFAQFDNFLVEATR
Assay: A Novel Cell-Based Assay to Identify Small Molecules for B -Galactocerebrosidase; note: 0% is about no effect; nearly all actives have a fitted effect of over 65% in size
Details: 145M-Twi-hGALC-G270D cells, HMU-beta-Gal fluorescence, 48 h; series mostly up to 57.5 µM; activation: at the top concentration
Procedure, shortened: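 qHTS, 1536-well; 145M-Twi-hGALC-G270D cells (WT line also made) in DMEM/F12 + 10% FBS; compound incubation on live cells; HMU-β-gal 0.1 mM final, pH 5.2, NaTC; carbonate stop; fluorescence increase = enhanced residual activity.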

activation, inactive:
CCC(C(=O)Nc1cc(C)ccc1OC)n1nnc(C(=O)OC)c1C(=O)OC (stereo not given) -16.6%
COc1ccc(NS(=O)(=O)c2ccc3c(c2)NC(=O)CCS3)c(OC)c1 -7.59%
CC(=O)Nc1cccc(NC(=O)Cc2csc(COc3cccc(C)c3)n2)c1 -9.19%
CCOC(=O)N1CCc2c(sc3c2c(=O)n(-c2ccc(CC)cc2)c(=O)n3Cc2cccc(OC)c2)C1 -3.43%
COc1ccccc1N1CCN(S(=O)(=O)c2ccc(-n3cnnn3)cc2)CC1 5.75%
O=C(NCCN1CCCCC1)c1ccc(Cn2c(SCc3ccc(F)cc3)nc3cccnc32)cc1 -10.7%
CN(C)c1ccc(CN(Cc2ccco2)C(=O)c2ccc(F)cc2)cc1 -7.33%
COc1ccccc1CNC(=O)CCC(=O)N1Cc2ccccc2Oc2ncccc21 -20.3%
CC(=O)N1c2ccc(S(=O)(=O)NCC3CCC(C(=O)Nc4cc(C)cc(C)c4)CC3)cc2CC1C (stereo not given) 2.51%
Cc1ccc(-n2nc3c(N4CCC(C(=O)N(C)Cc5ccccc5)CC4)nnc(C)c3c2C)cc1 -8.8%
Cc1ccc(C)c(S(=O)(=O)n2nc(C)c(S(=O)(=O)N3CCC(C)CC3)c2C)c1 -6.05%
CC(=O)Nc1ccc(S(=O)(=O)Nc2nc3n(n2)C(c2ccccc2)C=C(c2ccc(Cl)cc2)N3)cc1 (stereo not given) -12.7%
O=C(CSc1ncc(-c2ccccc2)[nH]1)Nc1ccc(F)cc1F -12.6%
O=C(CCCCn1c(=O)c2ccccc2n(CC(=O)Nc2ccc(F)cc2F)c1=O)NCc1ccccc1Cl -0.649%
CN1CCN(C(=O)C(=O)Nc2c3c(nn2-c2cccc(Cl)c2)CSC3)CC1 -10.6%
COc1ccc(CCNC(=O)CSc2cn(CCNC(=O)c3ccccc3F)c3ccccc23)cc1OC -2.32%
CCCCOC(=O)Cn1nnc2sc(-c3ccccc3)cc2c1=O -13.5%
COc1ccc(Nc2cc(C(=O)NCc3cccs3)c3ccccc3n2)cc1 -12.7%
Clc1ccc(C(Cn2ccnc2)OCc2ccsc2Cl)c(Cl)c1 (stereo not given) -9.46%
COC(=O)c1c(SC)nc2ccccc2c1OCc1ccc(C)cc1 -0.53%
CCOC(=O)c1c(C)[nH]c(C)c1S(=O)(=O)N1CCCC(C(=O)NCc2ccc(C)cc2)C1 (stereo not given) -23.2%
CCc1ccccc1N1C(=O)N(CC(=O)c2ccc(Cl)cc2)c2ccccc2S1(=O)=O -17.5%
Cc1ccc(Cn2c(=O)n(CCc3ccccc3)c(=O)c3c(C)c(C)sc32)cc1 -0.661%
CCOc1ccc(C2=C(C(=O)CC)Sc3nncn3N2C(=O)CC)cc1 -3.7%
CCOC(=O)Cn1c(=O)oc2cc(S(=O)(=O)N3CCCC(C)C3)ccc21 (stereo not given) -14.5%
O=C(NCc1ccc(Cl)cc1)c1ccc2oc(=O)n(Cc3ccccc3)c2c1 8.74%
CCOC(=O)c1cc(S(=O)(=O)N2CCN(c3cccc(OC)c3)CC2)[nH]n1 -10%
CCCCn1cc(S(=O)(=O)c2ccc(Cl)cc2)c(=O)c2cc(F)c(N3CCCC(C)C3)cc21 (stereo not given) -18.8%
CCc1cnc2c(c1SCC(=O)Nc1ccc(OC)c(OC)c1)c(=O)n(C)c(=O)n2C -6.99%
COC(=O)c1c(-c2ccc(Cl)cc2)noc1N1CCN(c2cccc(C)c2C)CC1 -12.6%
CC1CCCN(C(=O)CCS(=O)(=O)c2cc3c(cc2Cl)NC(=O)CO3)C1 (stereo not given) -11%
Cc1ccc(C2c3c(-c4ccccc4O)n[nH]c3C(=O)N2CCc2ccccc2)cc1 (stereo not given) -20.1%
COc1cccc(CNC(=O)Cn2nc3c(cc2=O)CCCC3)c1OC -6.16%
CCOc1ccc(CNC(=O)Cn2cc3c(n2)-c2c(oc(C(=O)N4CCCC4)c2C)CC3)cc1 -2.38%
CCCC1=Nc2cc(C(=O)NCC(C)c3ccccc3)ccc2Sc2ccccc21 (stereo not given) -11.2%
CC(=O)N1c2c(cc(Br)cc2S(=O)(=O)Nc2ccc(OC(F)(F)F)cc2)CC1C (stereo not given) -20.3%
Cc1c(C(=O)OC2CCC(C)CC2)[nH]c2c1C(=O)CC(c1ccccc1Cl)C2 (stereo not given) -23.3%
CCOc1ccc(CCNC(=O)CCCc2nnc3n(C)c(=O)c4sccc4n23)cc1OCC -6.45%
COc1ccccc1CN(Cc1ccco1)c1cnc(S(C)(=O)=O)nc1C(=O)Nc1ccccc1Cl 2.33%
CCc1cccc(C)c1NC(=O)NC1COc2ccccc2C1 (stereo not given) 13%
CCNc1nc(NC(C)CC)nc(Oc2ccc(OCC)nn2)n1 (stereo not given) -30%
COc1ccc(NC(=O)NCc2c(-n3cccc3)sc3c2CCCC3)c(OC)c1 -16%
COc1ccc(OCC(=O)Nc2nc(-c3ccc(Br)cc3)ns2)cc1 -11.9%
O=C(Nc1ccc(Cl)cc1)c1cc(S(=O)(=O)N2CCCc3ccccc32)ccc1F -23.5%
Cc1cc(Cl)ccc1NC(=O)CN1C(=O)COc2ccc(S(=O)(=O)N3CCC(C)CC3)cc21 -8.8%
O=C(CCCn1c(=O)[nH]c2ccsc2c1=O)N1CCN(c2cccc(C(F)(F)F)c2)CC1 -8.87%
CCOC(=O)c1noc2ncn(Cc3cccc(C#N)c3)c(=O)c12 -24.2%
CCOC(=O)Cc1ccc(NC(=O)N(C(C)C)C2CCN(C(C)=O)CC2)cc1 -9.13%
COc1ccc(NCc2cc3cc4c(cc3n(CC(=O)Nc3ccccc3)c2=O)OCO4)cc1 -27.9%
COc1ccc(NC(=O)CSc2nc(-c3ccc(OC)c(OC)c3)[nH]c2-c2ccc(C)cc2)cc1 -14%
Cc1cc(=O)[nH]c2nnc(SCc3c(F)cccc3Cl)n12 -17%
Cc1nc2sccn2c(=O)c1S(=O)(=O)Nc1ccc(N2CCOCC2)cc1 -7.02%
Cc1c(Cl)cccc1NC(=O)CNS(=O)(=O)c1cccs1 -21.4%
Cc1ccc(C2CCN(C(=O)Nc3ccc(Cl)cc3)C2)cc1 (stereo not given) -0.335%
CSc1cccc(NC(=O)C2CCN(S(=O)(=O)c3ccc4c(c3)CCCN4C(=O)C3CCC3)CC2)c1 -16%
COc1ccc(N(CC(C)C)S(=O)(=O)c2nnc(NC(=O)c3cccs3)s2)cc1 -12.8%
CCCCCCCCCCCCCCC[C@H](O)[C@@H](N)CO 2.6%
CCOc1ccc2c(c1)sc1nc(=O)n(-c3ccc(Cl)c(Cl)c3)c(=O)n12 -3.34%
CCOC(=O)CCn1cnc2onc(-c3cc(OC)ccc3Cl)c2c1=O -18.6%
Cc1ccc(OCc2nc(-c3ccc(C(=O)N4CCN(c5cccc(C(F)(F)F)c5)CC4)cc3)oc2C)cc1 -9.22%
Cc1ccc(C(=O)N2CCc3cc(CNC(=O)c4ccc(Br)cc4)ccc32)cc1 -19.7%
Cc1ccc(C(=O)Nc2ccccc2)cc1S(=O)(=O)Nc1ccc(Br)cc1 -7.99%
Cc1cccc(NC(=O)c2ccc3c(O)c(S(=O)(=O)c4ccccc4)c(=O)[nH]c3c2)c1C -23.6%
Cc1ccccc1-c1nc(CS(=O)(=O)CC(=O)NCCc2ccccc2)c(C)o1 5.97%
COc1ccc(Cl)cc1NC(=O)CSc1nc2ccccc2c2nc(-c3ccccc3)nn12 -10.5%
O=C(Nc1ccc2nc(SCC(=O)N3CCc4ccccc43)sc2c1)c1cccc(F)c1 2.26%
COc1ccc(S(=O)(=O)N2CCN(Cc3ccc4c(c3)OCO4)CC2)cc1C -28.9%
Cc1cccc(C)c1NC(=O)C(=O)NCC(c1ccc2c(c1)OCO2)N1CCOCC1 (stereo not given) -8.99%
CCOC(=O)c1cnc2c(Cl)cc(Cl)cc2c1Nc1cc(C(=O)O)ccc1C -25.5%
COCCNC(=O)CCn1c(=O)c2cc(OC)c(OC)cc2n(CC(=O)Nc2ccccc2C)c1=O 5.85%
CS(=O)(=O)NCC(c1ccco1)N1CCN(c2ccc(F)cc2)CC1 (stereo not given) -14.5%
O=S(=O)(c1ccc(-c2cc(C(F)(F)F)on2)s1)N1CCN(c2ccccc2)CC1 -11.5%
O=C(Cn1ncn2nc(-c3cccs3)cc2c1=O)NCc1ccc(Cl)cc1 -24.5%
CCc1ccc(S(=O)(=O)c2nnn3c2nc(Nc2ccc(C)c(Cl)c2)c2sccc23)cc1 -15.4%
Cc1oc(-c2cccc(Cl)c2)nc1CN1CCCC(C(=O)NCCc2ccc(Cl)cc2)C1 (stereo not given) -38.4%
COCCCn1c(=N)c(C(=O)NCc2ccco2)cc2c(=O)n3cccc(C)c3nc21 -2.72%
CCOC(=O)c1c(NC(=O)COc2ccc(Br)cc2)sc2c1CCCC2 -16.4%
CCc1ccccc1NC(=O)Nc1cc(C(=O)NCc2cccc(F)c2)ccc1N1CCCC1 0.426%
CSc1cccc(NC(=O)Cn2c(=O)n(Cc3ccccc3)c(=O)c3sc4ccccc4c32)c1 -8.89%
CC(=O)Nc1cc(C(=O)NCc2ccc(C)cc2)ccc1S(=O)(=O)c1ccc(Cl)cc1 -11%
CCOC(=O)CN1C(C(=O)c2ccccc2)=C(OC(=O)C(C)(C)C)c2ccccc2S1(=O)=O -9.39%
CCn1c(SCc2cccc(Br)c2)nnc1-c1nonc1NC(C)=O -1.35%
CC(C)CNC(=O)C(=O)Nc1c2c(nn1-c1ccccc1)CS(=O)(=O)C2 -12.2%
CCn1ccc2cc(S(=O)(=O)N3CCC(C(=O)NCc4cccc(Cl)c4)CC3)ccc21 -11.9%
Cc1cc(C)c(NC(=O)c2cc(S(=O)(=O)NCCC3=CCCCC3)ccc2F)c(C)c1 -2.05%
Cc1ccc(-n2ncc(C(=O)NCCN3CCCC3)c2C2CCN(C(=O)OC(C)(C)C)CC2)cc1 0.992%
Cc1cc(C)n(-c2nc3cc(Cl)ccc3nc2Nc2ccc(C)c(F)c2)n1 -2.68%
COc1ccc(Cn2c(CCC(=O)Nc3ccc(C)cc3)nc3cccnc32)cc1 -9.44%
Cc1ccc(NC(=O)Cn2nnc3sc4c(c3c2=O)CCC(C)C4)cc1 (stereo not given) -4.64%
CCOc1ccccc1NC(=O)N1c2ccccc2Sc2ccccc21 1.33%
Cc1cccc(-n2ncc(C(=O)N3CCN(Cc4ccccc4)CC3)c2C2CCN(C(=O)OC(C)(C)C)CC2)c1 -11.5%
CCOc1ccc(N(C)S(=O)(=O)c2c(C(=O)N3CCC(C)CC3)c(C)n(C)c2C)cc1 -7.87%
Cc1ccc2oc(C(=O)Nc3ccc(S(=O)(=O)N(C)c4ccccc4)cc3)cc(=O)c2c1 -20.3%
Cc1cc(NC(=O)Nc2nnc(N(C)C3CCCCC3)s2)ccc1Br -12.5%
COc1ccc(C(=O)N2CCC(c3nc4ccccc4s3)CC2)cc1Cl -23.6%
